# Measurements: paper PMC4336329 (PLoS ONE, 2015)
# Among all 310,000 compounds or so, about 2,200 (0.71%) showed an effect of 50% or more. The effect is printed as a negative number. This is one part of the list.
# Target: human ether-à-go-go-related gene (hERG) potassium channel (human, UniProt Q12809)
# Assay: primary screen, population patch clamp on CHO cells stably expressing hERG
# human ether-à-go-go-related gene (hERG) potassium channel, sequence (Q12809 whole entry, looked up): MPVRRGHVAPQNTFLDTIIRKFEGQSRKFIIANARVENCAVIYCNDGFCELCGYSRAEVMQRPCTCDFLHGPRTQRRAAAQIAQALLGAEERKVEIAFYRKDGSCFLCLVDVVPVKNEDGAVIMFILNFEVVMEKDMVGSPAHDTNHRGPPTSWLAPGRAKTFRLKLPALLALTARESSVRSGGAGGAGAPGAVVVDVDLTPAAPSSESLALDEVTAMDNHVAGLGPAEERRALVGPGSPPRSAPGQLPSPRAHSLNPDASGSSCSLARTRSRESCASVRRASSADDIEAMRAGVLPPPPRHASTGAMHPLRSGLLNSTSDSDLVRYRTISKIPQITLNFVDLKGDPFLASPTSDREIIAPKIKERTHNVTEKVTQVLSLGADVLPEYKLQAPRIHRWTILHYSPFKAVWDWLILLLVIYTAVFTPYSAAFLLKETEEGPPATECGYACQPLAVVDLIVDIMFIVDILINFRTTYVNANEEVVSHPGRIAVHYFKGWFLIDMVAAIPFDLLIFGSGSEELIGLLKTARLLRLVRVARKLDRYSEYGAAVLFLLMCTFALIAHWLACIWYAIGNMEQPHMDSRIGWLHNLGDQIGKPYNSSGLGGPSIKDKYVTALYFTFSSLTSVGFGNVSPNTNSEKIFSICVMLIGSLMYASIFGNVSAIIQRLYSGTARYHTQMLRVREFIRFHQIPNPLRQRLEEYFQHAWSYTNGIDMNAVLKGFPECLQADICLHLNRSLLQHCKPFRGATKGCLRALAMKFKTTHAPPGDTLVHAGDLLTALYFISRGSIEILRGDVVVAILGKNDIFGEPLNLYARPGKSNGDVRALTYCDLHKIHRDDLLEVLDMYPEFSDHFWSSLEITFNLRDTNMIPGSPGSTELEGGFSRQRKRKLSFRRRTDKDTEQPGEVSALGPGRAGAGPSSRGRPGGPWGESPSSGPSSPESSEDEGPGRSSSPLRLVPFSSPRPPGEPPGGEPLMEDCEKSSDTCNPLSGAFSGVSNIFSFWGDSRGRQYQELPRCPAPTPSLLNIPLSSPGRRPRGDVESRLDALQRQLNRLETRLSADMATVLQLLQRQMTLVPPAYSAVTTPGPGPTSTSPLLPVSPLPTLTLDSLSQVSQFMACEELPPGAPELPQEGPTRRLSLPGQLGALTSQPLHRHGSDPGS
row,SMILES,"hERG current change (%, negative = inhibition) at 1uM"
1,COC(=O)/C=C/c1ccccc1S(=O)(=O)N(Cc1ccccc1)Cc1ccco1,6.83%
2,O=C1C2C3C=CC(C2C(=O)N1CCCO)C1C2C(=O)N(CCCO)C(=O)C2C31 (stereo not shown),24.7%
3,CC1=C(C(=O)Nc2ccccc2C)C(c2ccc(C)o2)C2=C(CCCC2=O)N1 (stereo not shown),12.9%
4,Cc1cc(NC(=O)c2ccc(Cl)cc2)no1,10.4%
5,COc1cccc(CN(C)CC(=O)Nc2ccccc2N2CCOCC2)c1OC,9.88%
6,CCN(CC(=O)NCc1cccs1)CC(=O)Nc1c(Cl)ccc(C)c1Cl,-1.97%
7,COc1ccc(NC(=S)NC2CCCCC2)c(OC)c1,-3.22%
8,CCOC(=O)c1ccc(-n2ccnc2)c(NC(=O)c2ccc(C(C)(C)C)cc2)c1,-1.35%
9,Cc1ccc(S(=O)(=O)Oc2cccc(N3C(=O)C4CC=CCC4C3=O)c2)cc1 (stereo not shown),-5.12%
10,COC(=O)CN(c1cccc(C)c1)S(=O)(=O)c1ccccc1,-18.5%
11,CC1CCCN(CCC(=O)Nc2ccc(Br)cc2)C1.Cl (stereo not shown),-22.8%
12,CC(=O)N1c2c(cc(Br)cc2S(=O)(=O)NCC2COc3ccccc3O2)CC1C (stereo not shown),2.24%
13,CC(CCc1ccccc1)NC(=O)CN1CCc2ccccc2C1 (stereo not shown),6.79%
14,CCn1ncc([N+](=O)[O-])c1C(=O)Nc1c(C)nn(Cc2ccc(F)cc2)c1C,-20.6%
15,Cc1ccccc1C(=O)NC1CCSC1=O (stereo not shown),-7.66%
16,CCC(C)(C(=O)NC1CCCCC1)N(C(=O)CNC(=O)c1ccccc1)c1c(C)n(C)n(-c2ccccc2)c1=O (stereo not shown),10.7%
17,CC1=NN(c2cccc(Cl)c2)C(=O)C1,5.82%
18,CN(Cc1ccccc1)S(=O)(=O)c1cccc2nsnc12,-0.741%
19,COc1ccc(/C=C2\SC(=O)N(CC(=O)Nc3cccnc3)C2=O)cc1OC,16.9%
20,CCc1ccccc1N(CC(=O)N1CCN(c2ccc(F)cc2)CC1)S(C)(=O)=O,0.124%
21,CCn1c(SCC(=O)c2ccc(Cl)cc2)nnc1-c1ccoc1C,-1.96%
22,CC(=O)O.CN(C)Cc1cn(CCC(=O)O)c2ccccc12,10.9%

row,SMILES,"hERG current change (%, negative = inhibition) at 1uM"
1,Cn1c(SCC(=O)N/N=C/C=C/c2ccccc2[N+](=O)[O-])nc2ccccc21,2.89%
2,CCN(CC)S(=O)(=O)N1CCN(S(=O)(=O)N2CCOCC2)CC1,14.3%
3,CCCc1cc(=O)oc2c(C)c(OCC(=O)NCCN3CCOCC3)ccc12,-6.02%
4,COc1cccc(CN2CCN(CC(=O)NCCc3ccccc3)CC2)c1,15.3%
5,Cc1ccc(-c2nc3ccccc3[nH]2)cc1NC(=O)c1ccc2c(c1)OCO2,-12.5%
6,Cc1ccc(S(=O)(=O)N(CC(=O)Nc2cccc(C(F)(F)F)c2)C(=O)N2CCN(C)CC2)cc1,6.17%
7,CSCCC(NC(=O)c1ccccc1)C(=O)OCC(=O)N(C)CCC#N (stereo not shown),14.9%
8,CCCOP(=O)(OCCC)c1nc(-c2ccccc2)oc1NCc1ccccc1,12.8%
9,C[C@H](CO)NC(=O)[C@@H]1C[C@H]1[C@@H](NP(=O)(c1ccccc1)c1ccccc1)c1ccccc1,9.18%
10,Cc1ccc([N+](=O)[O-])cc1N(CC(=O)NCC1CCCO1)S(C)(=O)=O (stereo not shown),11%
11,Cn1cccc1C(=O)NC(=O)COC(=O)Cc1coc2ccc3ccccc3c12,13%
12,O=C(Nc1cccc(C(F)(F)F)c1)Nc1ccc(N2CCCC2)c(S(=O)(=O)Nc2ccccc2Cl)c1,19.7%
13,Cc1coc2c1c(C)cc1oc(=O)c(CC(=O)NCC(=O)N[C@H](C(=O)O)C(C)C)c(C)c12,9.35%
14,Cc1ccc(Cl)cc1N1CCN(C(=O)Cc2c(C(=O)O)[nH]c3ccccc23)CC1,-3.66%
15,Cn1cc(CCNC(=O)C2CCC(=O)N(CCc3ccc(Cl)cc3)C2)cn1 (stereo not shown),6.82%
16,Cc1sc2ncnc(Nc3ccc(N4CCOCC4)cc3)c2c1-c1ccccc1,17%
17,Cc1cccc(CNC(=O)C2CCC(=O)N(C3CC3)C2)c1 (stereo not shown),7.46%
18,CCN(CC)c1ccc2c(O)cc(=O)oc2c1,0.515%
19,N/C(=N\OC(=O)c1cccc([N+](=O)[O-])c1)c1cccnc1,8.63%
20,COc1ccc2nc3cc(Cl)ccc3c(Nc3cc(C(C)C)c(O)cc3C)c2c1,8.02%
21,CCOC(=O)N1CCN(C(=O)c2ccc3c(=O)n4c(nc3c2)CCCCC4)CC1,5.96%
22,COc1ccc(OCc2nc(-c3ccc(F)c(F)c3)cs2)cc1,17.4%

row,SMILES,"hERG current change (%, negative = inhibition) at 1uM"
1,O=C(CSc1nnc(CNC(=O)c2ccccc2F)o1)Nc1cccc(C(F)(F)F)c1,16%
2,O=C(CCc1nc(-c2ccccc2)no1)Nc1cccnc1,11.4%
3,Cc1ccc(/C=C2/C(=N)N3N=C(CC(=O)N4CCCC4)SC3=NC2=O)o1,9.17%
4,N#Cc1c(-c2ccccc2)nc2n1CCS2,10.6%
5,CC(C)C[C@H](NC(=O)N1CCn2c1nc1ccccc12)C(=O)N[C@H](Cc1ccccc1)C(=O)O,14%
6,Cc1cccn2c(=O)c3c(nc12)N1CCc2ccccc2C1C1(C3)C(=O)NC(=O)N(C)C1=O (stereo not shown),9.95%
7,Cc1c(Cl)c([N+](=O)[O-])nn1CCCC(=O)Nc1cccc(Cl)c1,-15%
8,CC(C)(C)C(=O)N1CCN(C(=O)c2ccco2)CC1,15.4%
9,CSCCC(NC(=O)c1ccc(C(C)(C)C)cc1)C(=O)O (stereo not shown),0.461%
10,CC(NS(=O)(=O)c1ccccc1)C(c1cccs1)N1CCN(c2ccccc2)CC1 (stereo not shown),9.03%
11,Cc1nc2c(-c3ccccc3)c(C)nn2c(C)c1CCC(=O)NC(C)CCc1ccco1 (stereo not shown),-3.77%
12,COc1ccc(COC(=O)C2CC(=O)N(Cc3ccccc3)C2)cc1 (stereo not shown),-0.745%
13,Cc1cccc(Cc2ncc(C(F)(F)F)cc2Cl)c1,8.31%
14,N#C/C(=C\c1cn(-c2ccccc2)nc1-c1cc2ccccc2o1)c1nc2ccccc2[nH]1,8.78%
15,COc1ccc(C(=O)N2CCCC2=O)cc1,16.3%
16,CCOc1ccc2nc(NC(=O)c3ccccn3)sc2c1,8.87%
17,O=C(Nc1ccccc1)N1CC=C(c2ccc(F)cc2)CC1,7.84%
18,CC(C)(C)c1ccc(C(=O)N2CCC(C(=O)NCC3CCCO3)CC2)cc1 (stereo not shown),-4.85%
19,Cc1ccc2cc(CN(CC(C)C)S(=O)(=O)c3cccc4nonc34)c(=O)[nH]c2c1,7.16%
20,O=C(NC12CC3CC(CC(C3)C1)C2)C1CC(=O)N(c2ccc(Br)cc2)C1 (stereo not shown),8.59%
21,COc1ccc(NS(=O)(=O)c2ccc(NC(=O)C3CCCO3)cc2)cc1 (stereo not shown),3.5%
22,CCOc1cc(C(=O)O)ccc1OCCOc1ccccc1,13.5%

row,SMILES,"hERG current change (%, negative = inhibition) at 1uM"
1,CC1CCN(C(=S)Nc2ccc3nc4n(c(=O)c3c2)CCCCC4)CC1,-8.58%
2,CCOC(=O)c1cnc(-c2ccccc2)nc1C(F)(F)F,5.88%
3,CCc1ccccc1NC(=O)Nc1cccc(F)c1,13.7%
4,Cc1ccc(S(=O)(=O)NCc2ccc(C(=O)NCCN(Cc3ccccc3)C(C)C)cc2)cc1,5.61%
5,Cc1ccc(OCC(=O)NNC(=S)NC(=O)c2ccc(Br)o2)c(C)c1,21.3%
6,CC(C)Cn1c(-c2ccc(Br)cc2)c[nH]c1=S,9.97%
7,Clc1cccc(Cl)c1C1=NOC(c2nnc(-c3ccccc3)o2)C1 (stereo not shown),12.4%
8,CC12Cc3ccc4ccccc4c3C=C1C[N+](C)(C)C2.[Cl-] (stereo not shown),5.54%
9,CC(C)(C)S(=O)(=O)/C(C#N)=C/Nc1ccccn1,11.8%
10,COc1ccc(-n2c(C)nnc2SCC(=O)N2C(C)CCCC2C)cc1 (stereo not shown),-2.93%
11,CC(Oc1ccc(F)cc1)C(=O)/C=C\N(C)C (stereo not shown),7.66%
12,O=C(CS(=O)(=O)Cc1ccccc1)Nc1ccc(S(=O)(=O)N2CCCCCC2)cc1,9.82%
13,COc1ccc(NC(=O)C2CCC2)cc1S(=O)(=O)N1CCOCC1,10.6%
14,O=C(Nc1nnc(CCS(=O)(=O)c2ccc3ccccc3c2)s1)c1cccs1,3.47%
15,CC(=O)NC(C)C(c1cccs1)N1CCN(c2ccccc2)CC1 (stereo not shown),1.59%
16,CCC(C)Sc1nnc(Cc2cc(=O)[nH]c(=O)[nH]2)n1-c1ccc(F)cc1 (stereo not shown),13.7%
17,COc1cc(-c2nc(=S)[nH][nH]2)cc(OC)c1OC,13.8%
18,Cc1ccc(C)c(-c2cc(C(=O)NN3CCOCC3)c3ccccc3n2)c1,6.54%
19,Cc1sc2nc(SCC(=O)NCCO)n(C)c(=O)c2c1C,10.2%
20,Cc1nn(C)cc1S(=O)(=O)NCc1ccccc1Cl,16%
21,CN(c1ccc(C(=O)Nc2cccnc2)cc1)S(C)(=O)=O,2.83%
22,Nc1ccc(S(=O)(=O)c2ccc(Cl)cc2)cc1,5.29%
